From PubChem BioAssay AID720542 (National Center for Advancing Translational Sciences (NCATS), 2013)
Values joined by “and” are separate entries in the source; they are usually repeats but may differ in a detail not shown here. Equal values may be shown once. Hit rate of the full screen: of about 360,000 compounds, about 740 (0.21%) were called active. Inconclusive results, whose numbers are uncertain, are shown with a selection of clear calls. Calls follow the shape of the dose curve; as a rule, active = well fitted inhibition curve with a large enough effect; inconclusive = small, poorly fitted or top-dose-only effect; inactive = no such curve, though single readings can be large or run the other way. Potencies of inconclusive entries are doubtful fits and often do not repeat.
Also: nearly all actives have a fitted effect of over 45% in size.
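For activity change, negative = inhibition in this document: 0% = vehicle wells and -100% = peptide control.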
Potency is read from the fitted curve at half-maximal effect; tags tell the direction and shape of the fitted curve.

These compounds were tested on Plasmodium falciparum AMA1 (3D7) - RON2 peptide interaction (assay: qHTS for Inhibitors of AMA1-RON; Towards Development of Antimalarial Drug Lead: Primary Screen). Conditions: AlphaScreen AMA1-biotinylated RON2 peptide binding; activity change, negative = inhibition: at 58.2 µM (top of the series) unless noted.
In short: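 AMA1 (3D7) with his tag at 25 nM final met compounds first, then biotinylated RON2 peptide at 25 nM; detection used donor plus acceptor beads, 10 µg/mL apiece, read by AlphaScreen after 30 min at room temperature.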
With `COc1ccc2nc(NN=C(C)c3ccccn3)cc(C)c2c1` the Potency was inconclusive: 39.8 µM [inhibitor, single point].
With `CC(=O)O[C@H]1[C@@H](O)[C@H](O)[C@H](Oc2c(O)c(C)c3c4c2[C@@H](C)CC[C@@H]4[C@@H](C)C[C@H]3C=C(C)C)O[C@H]1C` the Potency was inconclusive: 25.1 µM [inhibitor, single point].
In the case of `COc1ccc(-c2cn[nH]c2N)cc1`, the Potency is reported as “inactive”.
`CC1CCN(CC(=O)c2cccc(C(F)(F)F)c2)CC1` was tested, and the Potency was inconclusive: 39.8 µM [inhibitor, single point].
`c1ccc2c(c1)CSc1sccc1C2=C1CCNCC1` was tested, and the Potency was inconclusive: 17.8 µM [inhibitor, single point].
`COc1ccc(-c2cc(=Nc3c(C)n(C)n(-c4ccccc4)c3=O)c3ccccc3o2)cc1` was tested, and the Potency was “inactive”.
`O=C(NCCN1CCCC1)c1ccc2c(c1)N(Cc1ccc(F)cc1)C(=O)c1ccccc1S2=O` (configuration not stated) was tested, and the Potency was “inactive”.
In the case of `Cn1nc(C(F)(F)F)c(-c2ccc(Br)cc2)c1NC(=O)Nc1ccc(F)cc1F`, the Potency is reported as “inactive”.
In the case of `COc1ccc(N2CCN(CCCNC(=O)C(=O)c3c(C)[nH]c4ccccc34)CC2)cc1`, the Potency is reported as inconclusive: 35.5 µM [inhibitor, single point].
`COc1ccc(-c2csc(NC(=O)COc3ccc(N(C)S(=O)(=O)c4ccc(C)cc4)cc3)n2)cc1` was tested, and the Potency was “inactive”.
For `CCC(c1nnnn1C(C)(C)C)N(Cc1cccs1)Cc1cc2cc(C)c(C)cc2n2nnnc12` (configuration not stated), the Potency was “inactive”.
`CCN(CCCNS(=O)(=O)c1ccc2c(c1)CCN2C(C)=O)c1cccc(C)c1` was tested, and the Potency was inconclusive: 39.8 µM [inhibitor, single point].
With `CC(=O)Nc1sc(C)c(C)c1CN1CCN(Cc2ccccc2)CC1` the Potency was “inactive”.
In the case of `CCOc1ccc(CN(C)CC(=O)NNC(=O)c2ccc(Cl)cc2)cc1OC`, the activity change, negative = inhibition is reported as inactive: 14.3% [at 2.32 µM].
For `COc1ccc(-n2nnnc2SCC(=O)c2cc3ccccc3o2)cc1`, the Potency was inconclusive: 7.08 µM [inhibitor, partial curve].
In the case of `COc1ccc(OC)c(NC(=O)C(CC(C)C)NC(=O)C2CCCCC2)c1` (configuration not stated), the Potency is reported as “inactive”.
In the case of `CCN1C(=O)/C(=C/C=C2\C=CN(CC)c3ccccc32)SC1=S`, the Potency is reported as inconclusive: 8.91 µM [inhibitor, partial curve].
With `COc1cccc(OC)c1C(=O)Nc1ccccc1C(=O)N1CCCC1` the Potency was “inactive”.
In the case of `COc1ccc(CN2CCN(Cc3ccccc3F)CC2)cc1OC`, the Potency is reported as inconclusive: 20 µM [inhibitor, partial curve].
`Cc1ccc(F)c(Oc2cc(NN3CCCCC3)c([N+](=O)[O-])cc2[N+](=O)[O-])c1` was tested, and the Potency was inconclusive: 14.1 µM [inhibitor, partial curve].
In the case of `CCc1ccc(S(=O)(=O)/N=C2\C=C(Nc3cccc(C(=O)O)c3)C(=O)c3ccccc32)cc1`, the Potency is reported as inconclusive: 15.8 µM [inhibitor, partial curve].
In the case of `COc1ccc(NC(=O)C2Cc3c(-c4cccc(NC(C)=O)c4)ccnc3O2)cn1` (configuration not stated), the Potency is reported as inconclusive: 20 µM [inhibitor, partial curve].
With `CCCc1c(C(=O)NNc2cccc(Cl)c2)cnn1-c1ccccc1` the Potency was inconclusive: 31.6 µM [inhibitor, single point].
For `CC1C/C(=C/c2cccn2C)C(=O)/C(=C/c2cccn2C)C1` (configuration not stated), the Potency was inconclusive: 39.8 µM [inhibitor, single point].
In the case of `C[C@H](c1ccccc1)N1C[C@H](COCc2ccccc2)Oc2cc(N3CC[C@H](N(C)C)C3)ccc2S1(=O)=O`, the Potency is reported as inconclusive: 17.8 µM [inhibitor, partial curve].
In the case of `Cc1ccc(OCCOc2cccc3ccc(C)nc23)c([N+](=O)[O-])c1`, the Potency is reported as inconclusive: 31.6 µM [inhibitor, single point].
In the case of `CN1C(=O)/C(=C/C=C2/CCCN2C)N(C)C1=S`, the Potency is reported as inconclusive: 2.82 µM [inhibitor, full curve, poor fit].
In the case of `N#CC(C#N)=C1C=C2C=C(N3CCCCC3)CCC2CC1` (configuration not stated), the Potency is reported as inconclusive: 7.08 µM [inhibitor, full curve].
In the case of `Oc1ccc(N=Nc2ccc3ccccc3c2)cc1`, the Potency is reported as inconclusive: 28.2 µM [inhibitor, single point].
In the case of `O=C(O)C1Nc2ccc(Br)cc2C2C=CCC12` (configuration not stated), the Potency is reported as active: 10 µM.
`COc1ccc(-c2[nH]c(-c3cccc(OC)c3)nc2SCC(=O)NC2CCCC2)cc1` was tested, and the Potency was inconclusive: 28.2 µM [inhibitor, single point].
In the case of `Cn1c(N)c(C(=O)COC(=O)c2ccccc2C(=O)c2ccccc2)c(=O)n(C)c1=O`, the Potency is reported as “inactive”.
With `CCN(CC)c1ccc(/C=N/N2CCN(Cc3ccccc3Cl)CC2)cc1` the Potency was inconclusive: 1.78 µM [inhibitor, partial curve, poor fit].
With `CSc1ccc(OC2(C)CCN(Cc3ccc(OC(C)C)cc3)C2)cc1` (configuration not stated) the Potency was inconclusive: 35.5 µM [inhibitor, partial curve].
In the case of `Cc1ccc(CNCc2ccco2)cc1`, the Potency is reported as inconclusive: 25.1 µM [inhibitor, partial curve].
With `O=C(C(=O)N1CCN(Cc2ccc3c(c2)OCO3)CC1)c1c[nH]c2ccccc12` the Potency was “inactive”.
For `CCOC(=O)N1CCN(C(=O)c2ccc3c(c2)ncn3C2CCCC2)CC1`, the Potency was “inactive”.
For `CSc1ccc(-c2cc3c(c4c2ccn4C)C2CCC3O2)cc1` (configuration not stated), the Potency was inconclusive: 25.1 µM [inhibitor, single point].
With `CN(C)c1ccc(CN(C(=O)/C=C/c2ccccc2Cl)C2CCS(=O)(=O)C2)cc1` (configuration not stated) the Potency was inconclusive: 39.8 µM [inhibitor, single point].
In the case of `Cn1c(-c2cccc(Br)c2)cnc1NCc1ccccc1O`, the Potency is reported as inconclusive: 22.4 µM [inhibitor, single point].
With `O=[N+]([O-])c1ccc(/C=C/c2ccc3cccc(O)c3n2)cc1` the Potency was “inactive”.
With `CCOC(=O)c1[nH]cnc1C(=O)Nc1ccncc1` the Potency was inconclusive: 25.1 µM [inhibitor, single point].
In the case of `COc1ccc(N2CCN(c3ncnc4scc(-c5ccccc5)c34)CC2)cc1`, the Potency is reported as inconclusive: 12.6 µM [inhibitor, partial curve].
In the case of `COc1cc2c(CCNC(C)=O)c[nH]c2cc1O`, the Potency is reported as active: 4.47 µM.
`O=C1COc2ccc(C(=O)COC(=O)CCCOc3ccccc3)cc2N1` was tested, and the Potency was “inactive”.
`CN(C)c1ccc(C(O)c2cc3ccccc3s2)cc1` (configuration not stated) was tested, and the Potency was inconclusive: 39.8 µM [inhibitor, partial curve, poor fit].
`N#Cc1nc(Cc2ccccc2)oc1N1CCN(c2ccccc2)CC1` was tested, and the Potency was inconclusive: 18.9 µM [inhibitor, partial curve].
In the case of `CN(C)C(=O)c1ccc(NC(=O)c2ccccc2Sc2ccccc2C#N)cc1`, the Potency is reported as inconclusive: 7.08 µM [inhibitor, single point].
With `O=C(CN1CCN(c2ccc(F)cc2)CC1)Nc1ccccc1[N+](=O)[O-]` the Potency was inconclusive: 28.2 µM [inhibitor, partial curve].
`C/C(=N\Nc1ccc(C(F)(F)F)cc1[N+](=O)[O-])C1CC1` was tested, and the Potency was inconclusive: 11.2 µM [inhibitor, partial curve].
In the case of `CSc1ccc(OC2(C)CCN(Cc3ccc(C(C)C)cc3)C2)cc1` (configuration not stated), the Potency is reported as inconclusive: 20 µM [inhibitor, partial curve].
For `O=C(NCc1ccco1)C1CCN(c2nc3ccccc3n2Cc2ccc(F)cc2)CC1`, the Potency was “inactive”.
In the case of `COc1ccc(NC(=O)CN(C)CC(=O)Nc2cccc(S(=O)(=O)N(C)c3ccccc3)c2)cc1`, the Potency is reported as “inactive”.
`c1ccc(CC2CCN(C3=Nc4cccc5cccc3c45)CC2)cc1` was tested, and the Potency was inconclusive: 20 µM [inhibitor, partial curve].
`COc1cccc(NC(=O)C(=O)NCc2ccncc2)c1` was tested, and the activity change, negative = inhibition was inconclusive: -16.5% [inhibitor].
`CCN(CCCNC(=O)c1[nH]c(C)c(C(C)=O)c1C)c1ccccc1` was tested, and the Potency was inconclusive: 11.2 µM [inhibitor, partial curve].
For `Clc1ccc(SCCOCCN2CCOCC2)cc1`, the Potency was inconclusive: 25.1 µM [inhibitor, single point].
In the case of `O=C(NCC1CCCN1S(=O)(=O)c1cccs1)c1cccc(F)c1` (configuration not stated), the Potency is reported as inconclusive: 39.8 µM [inhibitor, single point].
With `CCC(C)n1c(SCc2ccc([N+](=O)[O-])cc2)nc2ccsc2c1=O` (configuration not stated) the Potency was inconclusive: 22.4 µM [inhibitor, partial curve].
With `CCOC(=O)C1=C(C)N=C2SC(C(=O)OC)=CC(=O)N2C1c1ccc(OC)cc1` (configuration not stated) the Potency was inconclusive: 3.55 µM [inhibitor, partial curve].
For `CCOc1ccc(CN2CCN(S(=O)(=O)c3ccc(NC(C)=O)cc3)CC2)cc1OC`, the Potency was inconclusive: 37.7 µM [inhibitor, single point].
In the case of `Cn1c(C2CCCCC2)nc2ccccc21`, the Potency is reported as “inactive”.
`COc1ccc(NC(=S)NCCC2=CCCCC2)cc1OC` was tested, and the Potency was inconclusive: 20 µM [inhibitor, partial curve].
With `COC(=O)/C(C#N)=C/c1c(N2CCN(c3ccc(OC)cc3)CC2)nc2c(C)cccn2c1=O` the Potency was inconclusive: 15.8 µM [inhibitor, partial curve].
`COc1ccc(/C=N/NC(=O)c2cc(O)c(O)c(O)c2)cc1Cn1cc([N+](=O)[O-])cn1` was tested, and the Potency was inconclusive: 22.4 µM [inhibitor, partial curve].
For `C/C=C/c1ccc(OCCCn2cncn2)c(OC)c1`, the Potency was inconclusive: 39.8 µM [inhibitor, single point].
With `C=CCc1cc(OC)ccc1OCC(O)CN1CCN(c2ccc(OC)cc2)CC1` (configuration not stated) the Potency was inconclusive: 22.4 µM [inhibitor, partial curve] and inconclusive: 23.8 µM [inhibitor, partial curve].
